{"source": "PubChem BioAssay AID720542", "about": "(National Center for Advancing Translational Sciences (NCATS), 2013)", "note": "“And” between values parts separate entries of the source, which are not always exact repeats. Identical values can stand only once. Out of some 360,000 compounds screened, about 740 (0.21%) were called active. Inconclusive means that the source gave no clear call. Such entries were picked first, then a sample of the others. Calls come from the whole dose curve; as a rule, active = well fitted inhibition curve with a large enough effect; inconclusive = small, poorly fitted or top-dose-only effect; inactive = no such curve, though single readings can be large or run the other way. Where the call is inconclusive, the potency comes from a doubtful curve fit. Potency is the fitted concentration of half-maximal effect; tags give direction and shape of the fitted curve."}
{"tested_on": "Plasmodium falciparum AMA1 (3D7) - RON2 peptide interaction", "assay": "qHTS for Inhibitors of AMA1-RON; Towards Development of Antimalarial Drug Lead: Primary Screen; note: nearly all actives have a fitted effect of over 45% in size;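 for activity change, negative = inhibition: 0% = vehicle wells and -100% = peptide control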", "conditions": "AlphaScreen AMA1-biotinylated RON2 peptide binding; activity change, negative = inhibition: at 58.2 µM (top of the series) unless noted", "how_it_was_run": "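AMA1 (3D7) with his tag at 25 nM final met compounds first, then biotinylated RON2 peptide at 25 nM; detection used donor plus acceptor beads, 10 µg/mL apiece, read by AlphaScreen after 30 min at room temperature.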"}
{"smiles": "O=C(Nc1ccc(Oc2c(F)c(F)c(F)c(F)c2F)cc1)OC1CCN2Cc3ccccc3N=C12", "note": "(centres undefined)", "activity change, negative = inhibition": "inactive: 0%"}
{"smiles": "CCOc1ccc(Nc2nc(Cl)nc(N3CCN(c4ccc(OC)cc4)CC3)n2)cc1", "Potency": "inconclusive: 10 µM [inhibitor, partial curve]"}
{"smiles": "COc1ccc(OCCCCN(C)Cc2ccccc2)cc1", "Potency": "inconclusive: 25.1 µM [inhibitor, single point]"}
{"smiles": "CCC1CCCCN1C(=O)COC(=O)c1cc(=O)[nH]c2ccccc12", "note": "(centres undefined)", "activity change, negative = inhibition": "inactive: -6.01% [at 11.6 µM]"}
{"smiles": "Cc1cccc(NC(=O)CNC(=O)c2cccc(-n3cccc3)c2)c1C", "Potency": "inconclusive: 35.5 µM [inhibitor, partial curve]"}
{"smiles": "CCCCc1ccc(-n2c(Cc3cccs3)n[nH]c2=S)cc1", "activity change, negative = inhibition": "inactive: 55.2%"}
{"smiles": "C/C=C/c1ccc(OCCCCN(C)Cc2ccccc2)c(OC)c1", "Potency": "inconclusive: 20 µM [inhibitor, partial curve]"}
{"smiles": "CN(C)c1ccc(CN(C(=O)COc2ccc(Br)cc2)C2CCS(=O)(=O)C2)cc1", "note": "(centres undefined)", "Potency": "inconclusive: 26.7 µM [inhibitor, partial curve]"}
{"smiles": "CN1C(=S)N(c2ccccc2)C(=O)/C1=C/c1ccco1", "activity change, negative = inhibition": "inactive: -23.9%"}
{"smiles": "CC(=O)Oc1cc(C(=O)OCC(=O)N2CCc3ccccc3C2)cc(OC(C)=O)c1OC(C)=O", "Potency": "active: 0.316 µM"}
{"smiles": "CC(C)c1ccc(S(=O)(=O)/N=C2\\C=C(NS(=O)(=O)c3ccccc3)C(=O)c3ccccc32)cc1", "Potency": "inconclusive: 10 µM [inhibitor, partial curve]"}
{"smiles": "COc1ccc(N=C2S/C(=C\\c3ccc(Cl)c([N+](=O)[O-])c3)C(=O)N2CCN(C)C)cc1", "Potency": "active: 14.1 µM"}
{"smiles": "O=c1nc2s/c(=C\\c3ccco3)c(=O)n2nc1Cc1ccc(F)cc1", "Potency": "inconclusive: 15.8 µM [inhibitor, single point]"}
{"smiles": "O=C(C1=C[C@H](c2csc3ccccc23)C[C@H](OCc2ccc(CO)cc2)O1)N1CCN(Cc2ccccc2)CC1", "Potency": "inconclusive: 14.1 µM [inhibitor, partial curve]"}
{"smiles": "O=C(CN1CCN(S(=O)(=O)c2ccccc2)CC1)Nc1ccccc1Cl", "Potency": "inconclusive: 11.2 µM [inhibitor, full curve, poor fit]"}
{"smiles": "CCN(CC)CCCn1c2c(c(SCC(=O)Nc3cccc4ccccc34)nc1=O)CCC2", "activity change, negative = inhibition": "inactive: -10.1%"}
{"smiles": "O=[N+]([O-])c1ccc2c(c1)Cc1cc(F)ccc1-2", "Potency": "inconclusive: 0.708 µM [inhibitor, full curve, poor fit]"}
{"smiles": "O=C(NC(=S)NCC1CCCO1)c1ccc(Br)o1", "note": "(centres undefined)", "Potency": "inconclusive: 8.91 µM [inhibitor, partial curve]"}
{"smiles": "CCOC(=O)C1(C)CCN1C(=O)c1ccc(C(C)(C)C)cc1", "note": "(centres undefined)", "activity change, negative = inhibition": "inactive: 6.42%"}
{"smiles": "Nc1ccc(S(=O)(=O)c2cc(O)c3ccccc3c2O)cc1", "activity change, negative = inhibition": "inactive: -13.7%"}
{"smiles": "CC1=NCCc2c1[nH]c1cc(O)ccc21", "Potency": "inconclusive: 20 µM [inhibitor, partial curve]"}
{"smiles": "COc1ccc(Nc2nc(-c3sc(C)nc3C)cs2)c(OC)c1", "Potency": "inconclusive: 22.4 µM [inhibitor, partial curve]"}
{"smiles": "Fc1ccc(/C=N/Nc2nn[nH]n2)cc1", "activity change, negative = inhibition": "inactive: 23.1%"}
{"smiles": "CCn1cnc2sc(-c3ccccc3)cc2c1=O", "activity change, negative = inhibition": "inactive: 11.4%"}
{"smiles": "CN1CCN(Cc2nc3ccccc3c(=O)n2Cc2nc(-c3ccc([N+](=O)[O-])cc3)cs2)CC1", "Potency": "inconclusive: 22.4 µM [inhibitor, partial curve]"}
{"smiles": "S=C(c1ccc(-c2cccc(Cl)c2)o1)N1CCCCC1", "Potency": "inconclusive: 12.6 µM [inhibitor, partial curve]"}
{"smiles": "CCOc1cc(N2CCCC2)ccc1[N+](=O)[O-]", "activity change, negative = inhibition": "inactive: -8.77%"}
{"smiles": "Oc1ccccc1N1CCN(C(c2ccccc2)c2ccccc2)CC1", "Potency": "inconclusive: 25.1 µM [inhibitor, partial curve]"}
{"smiles": "O=C(NCCC1=CCCCC1)C1CCN(C(=O)c2ccc(Cl)cc2)CC1", "activity change, negative = inhibition": "inactive: 21.6%"}
{"smiles": "Cn1cccc1/C=N/N1CCN(Cc2ccc(Cl)cc2)CC1", "Potency": "inconclusive: 0.631 µM [inhibitor, full curve, poor fit]"}
{"smiles": "CCOc1ccc(N=Cc2ccc([N+](=O)[O-])cc2)c(O)c1", "Potency": "inconclusive: 39.8 µM [inhibitor, partial curve]"}
{"smiles": "CN1CCC(N(C)c2nc(-c3ccc([N+](=O)[O-])cc3)nc3ccccc23)CC1", "Potency": "inconclusive: 6.31 µM [inhibitor, single point]"}
{"smiles": "O=C(c1cc2sccc2n1Cc1ccccc1)N1CCCc2ccccc21", "activity change, negative = inhibition": "inactive: -8.41%"}
{"smiles": "COc1ccc(OC)c(CN2CCN(C(=O)c3cc(S(=O)(=O)Nc4ccccc4OC)ccc3C)CC2)c1", "Potency": "inconclusive: 22.4 µM [inhibitor, partial curve]"}
{"smiles": "O=C1ON=C(c2ccccc2)/C1=C/c1cccnc1", "activity change, negative = inhibition": "inactive: -11.9%"}
{"smiles": "CNc1ccccc1-c1nc2ccccc2n(C)c1=O", "Potency": "inconclusive: 39.8 µM [inhibitor, single point]"}
{"smiles": "O=C1C=C(N2CCN(c3ccccn3)CC2)C(=O)c2c(O)ccc(O)c21", "Potency": "inconclusive: 11.2 µM [inhibitor, partial curve]"}
{"smiles": "CCCn1c(C)cc(C(=O)CSc2nc3ccccc3c(=O)n2Cc2ccco2)c1C", "Potency": "inconclusive: 25.1 µM [inhibitor, partial curve, poor fit]"}
{"smiles": "O=C(c1ccc(-c2ccccc2)cc1)N1CCN(c2ccccc2F)CC1", "activity change, negative = inhibition": "inactive: 2.91%"}
{"smiles": "CCOC(=O)c1sc(Nc2ccc(C)cc2C)nc1C", "Potency": "inconclusive: 39.8 µM [inhibitor, partial curve, poor fit]"}
{"smiles": "COc1ccc(CC(=O)NNC(=S)NCC2CC2)cc1OC", "activity change, negative = inhibition": "inactive: 75.4%"}
{"smiles": "CSc1ccccc1OCc1cc(C(=O)N(C)Cc2nonc2C)no1", "activity change, negative = inhibition": "inactive: -3.33%"}
{"smiles": "Cc1ccc(NCc2ccc(O)c3ncccc23)cc1", "activity change, negative = inhibition": "inactive: 14.4%"}
{"smiles": "Cc1noc(C)c1S(=O)(=O)Nc1ccc(C(=O)Nc2ccc(OC(F)(F)F)cc2)cc1", "activity change, negative = inhibition": "inactive: 19.1%"}
{"smiles": "CCN(CC)c1ccc2c(-c3ccc(S(=O)(=O)O)cc3S(=O)(=O)[O-])c3ccc(=[N+](CC)CC)cc-3oc2c1", "Potency": "active: 14.1 µM"}
{"smiles": "COc1ccc(SC[C@H](CC(C)C)N2CCN(CCc3ccccc3)CCC2=O)cc1", "Potency": "inconclusive: 39.8 µM [inhibitor, single point]"}
{"smiles": "NC(=O)c1sc2cc(C(F)(F)F)cnc2c1-c1ccccc1", "Potency": "inconclusive: 39.8 µM [inhibitor, single point]"}
{"smiles": "COc1ccccc1-n1c(-c2ccc(NS(C)(=O)=O)cc2)n[nH]c1=S", "activity change, negative = inhibition": "inactive: 3.3%"}
{"smiles": "c1ccc2c(c1)OCCc1c-2[nH]c2ccccc12", "Potency": "inconclusive: 22.4 µM [inhibitor, single point]"}
{"smiles": "O=C(CSc1nnnn1-c1cccc(F)c1)NC1CC1", "Potency": "inconclusive: 0.282 µM [inhibitor, full curve, poor fit]"}
{"smiles": "CCOC(=O)C1(Cc2cccc(OC)c2)CCN(Cc2cccc3c2OCO3)CC1", "Potency": "inconclusive: 20 µM [inhibitor, single point]"}
{"smiles": "CN(C)c1ccc(C=C2C=Cc3ccccc32)cc1", "Potency": "inconclusive: 3.16 µM [inhibitor, full curve]"}
{"smiles": "CN(C)c1nc2ccc(OCCN3CCCCC3)cc2s1", "activity change, negative = inhibition": "inconclusive: -8.4% [inhibitor]"}
{"smiles": "CCN1CCN(Cc2ccc(NC(=O)c3cc(NC(=O)c4cncc(-c5ccc(C#N)cc5)c4)cc(OC)c3)cc2C(F)(F)F)CC1", "Potency": "inconclusive: 25.1 µM [inhibitor, single point] and inconclusive: 15.8 µM [inhibitor, partial curve]"}
{"smiles": "CC1(C)CC(=O)C2=C(C1)OC(N)=C(C#N)C2c1cc2c(cc1[N+](=O)[O-])OCO2", "note": "(centres undefined)", "Potency": "inconclusive: 6.31 µM [inhibitor, full curve, poor fit]"}
{"smiles": "Cc1c(/C=N/NC(=O)C(C)(C)Oc2ccc(Cl)cc2)cnn1C", "activity change, negative = inhibition": "inactive: 13.7%"}
{"smiles": "COc1cc(/C=C/c2sc3ccccc3[n+]2CCCS(=O)(=O)[O-])ccc1O", "Potency": "inconclusive: 20 µM [inhibitor, partial curve]"}
{"smiles": "CCN(CCNC(=O)C1CCN(Cc2nc(-c3ccc(Cl)cc3)oc2C)CC1)c1ccccc1", "Potency": "inconclusive: 31.6 µM [inhibitor, single point]"}
{"smiles": "N#Cc1nc(COc2ccc(Cl)cc2Cl)oc1N1CCN(c2ccccc2)CC1", "Potency": "inconclusive: 13.4 µM [inhibitor, partial curve]"}
{"smiles": "CC[C@H]1CC2CN3CCc4c([nH]c5cc(OC)ccc45)[C@](C(=O)OC)(C2)[C@H]13", "Potency": "inconclusive: 31.6 µM [inhibitor, partial curve]"}
{"smiles": "CC1NC(=O)NC1CCCCCC(=O)Nc1ccc(F)c(Cl)c1", "note": "(centres undefined)", "Potency": "inconclusive: 31.6 µM [inhibitor, partial curve]"}
{"smiles": "CCc1nc2c(OCc3ccc(Cl)cc3)cccn2c1N(C)C(=O)c1ccco1", "Potency": "inconclusive: 28.2 µM [inhibitor, single point]"}
{"smiles": "COc1ccc(-c2csc(N(CCCN(C)C)C(=O)c3ccc(C)cc3)n2)cc1", "activity change, negative = inhibition": "inactive: -24.8%"}
{"smiles": "C/C=C/C=C/C(=O)N1CC[C@]23c4ccccc4N[C@H]4N(C)c5cccc6c5[C@]42CCN([C@H]6C2OC2(C)C)[C@H]13", "note": "(some centres undefined)", "Potency": "inconclusive: 28.2 µM [inhibitor, partial curve]"}
{"smiles": "Cc1ccc(SC[C@H](c2ccccc2)N2CCN(CC(C)C)CCC2=O)cc1", "activity change, negative = inhibition": "inactive: 6.41%"}
{"smiles": "CC(C)OC(=O)CC(=O)c1sc2nc3c(cc2c1N)CN(C)CC3", "Potency": "inconclusive: 39.8 µM [inhibitor, single point]"}
{"smiles": "O=C1N=c2ccccc2=C1c1sc(Nc2cccc(O)c2)nc1O", "Potency": "inconclusive: 2.51 µM [inhibitor, partial curve]"}
{"smiles": "Cc1cc(SCC(=O)OCC(=O)N2CCCC2=O)c(C)cc1Br", "activity change, negative = inhibition": "inactive: 9.82%"}
{"smiles": "CCCc1ccc(C2C3=C(CC(C)(C)CC3=O)NC3=C2C(=O)c2ccccc23)cc1", "note": "(centres undefined)", "Potency": "inconclusive: 10.6 µM [inhibitor, partial curve]"}
